# Laboratory results: PubChem BioAssay AID889 (National Center for Advancing Translational Sciences (NCATS), 2007)
# Screen size: about 75,000 compounds; about 15 (0.02%) were called active. Inconclusive means that the source gave no clear call. Such entries were picked first, then a sample of the others. The call rests on the fitted dose curve; in most records, active means well fitted inhibition curve with a large enough effect in the main read-out, with a control signal flat (not every such curve was filed as active); inconclusive means small, poorly fitted or top-dose-only effect, or a change in a side signal; inactive means flat fitted curve, though single readings scatter. A potency beside an inconclusive call is a rough fit, not a confirmed value. A note “side channel” means that the fit belongs to a control or component signal, not to the main read-out.
# Target: Caspase-7 (Homo sapiens) (UniProt P55210)
# Sequence of UniProt P55210 (P55210 whole entry, looked up): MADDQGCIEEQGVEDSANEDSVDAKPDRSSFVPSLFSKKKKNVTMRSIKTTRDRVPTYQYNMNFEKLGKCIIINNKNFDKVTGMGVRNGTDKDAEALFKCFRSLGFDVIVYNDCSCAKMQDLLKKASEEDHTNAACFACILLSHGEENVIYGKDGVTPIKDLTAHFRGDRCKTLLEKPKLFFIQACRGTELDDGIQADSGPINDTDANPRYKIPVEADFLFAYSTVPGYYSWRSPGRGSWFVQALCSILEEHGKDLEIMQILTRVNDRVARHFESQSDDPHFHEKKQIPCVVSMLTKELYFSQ
# Test: qHTS Assay for Allosteric/Competitive Inhibitors of Caspase-7; on activity change, negative = inhibition: % of control where 0% means no effect
# Settings: recombinant caspase-7, Ac-DEVD-AFC fluorescence rate; activity change, negative = inhibition: at 57.5 µM (top of the series) unless noted
# From the text: NIH Molecular Libraries Screening Centers Network [MLSCN]
# NIH Chemical Genomics Center [NCGC]
# PI Name: Dr. James Wells,
# Dr. Enrique Perez-Paya, Dr.Janice Williams, Dr. Dennis Wolan, a person
# The caspases (Cysteine Aspartyl Protease) comprise a related family of 14 dimeric proteases that are critical mediators of apoptosis (programmed cell death) and inflammation. The caspases represent an important class of drug targets for stroke, ischemia, cancer and inflammatory diseases. […] One goal of this project was to identify compounds that act as allosteric inhibitors via stabilizing the procaspase form of the enzyme. Previous work in Well's laboratory has shown that such allosteric inhibitors can be identified and these act by binding at the dimer interface of enzyme (Hardy, Lam et al., 2004).
# The biochemical assay was configured using purified caspase 7 at a high enzyme concentration to promote formation of the homodimers and thus facilitate the identification of allosteric inhibitors. The overall goal was to identify reversible inhibitors with better drug-like properties than the currently available set of aspartyl-containing peptidomimetics that covalently bind the active site. Caspase 7 was assayed using the profluorescent substrate Ac-DEVD-AFC. After initiation of the assay with substrate the plates were rapidly read using an automated robotic system (Kalypsys, Inc.) to maintain consistent timing. A kinetic mode of detection was used where the initial rate was collected (estimated final product formation was ~10%). Compounds were screened as a concentration-titration series that ranged from 57 uM to 0.7 nM. Below is the protocol used for caspase 7.
# NCGC Assay Protocol Summary:
# Caspase 7 was prepared in buffer (50 mM HEPES pH 7.5, 50 mM KCl, 200 mM NaCl, 10 mM DTT, 0.1% CHAPS) at a concentration of 66.6 nM and 3 uL was dispensed to all wells using black solid Kalypsys 1536-well plates. 20 nL of DMSO containing compounds was added using a pin-tool (Kalypsys Inc.) to columns 5-48. Then 20 nL of DMSO solution from a control plate was added to columns 1-4. Controls were: Column 1, 16 point titration with each concentration in duplicate (1:1 dilutions in DMSO; final starting concentration was 57 uM) of the caspase 7 inhibitor Ac-DEVD-CHO (Alexis Biochemicals); Column 2, a 16 point titration with each concentration in duplicate of the free AFC fluorophore prepared in DMSO (Alexis Biochemicals), final starting was 40 uM; Column 3 neutral (DMSO only) control; Column 4: DMSO alone, to serve as a negative control (no substrate was added). Then 1 uL of 20 uM the substrate Ac-DEVD-AFC (Alexis Biochemicals) prepared in the same buffer was dispensed to all wells except columns 2 and 4 and the plates were immediately transferred (< 1 min) to the Viewlux. The plates were then exposed using 405 nm excitation/520 nm emission filters for 4 sec and read at 20 sec intervals for 3 min. Final enzyme concentration was 50 nM and the final substrate concentration was 5 uM.
# Concentration-response curves were fitted to the data calculated from slope of the linear regression of fluorescent intensity versus time (the rate). The concentration-effect curves were then classified based on curve quality (r2), response magnitude and degree of measured activity. […] Inconclusive compounds had appreciable concentration-dependent effects on both the measured rate and the interpolated basal fluorescence intensity at the start of the reaction but where the basal fluorescent intensity was marginal (e.g. < 10-fold). Inconclusive compounds also encompass highly fluorescent compounds (>100-fold increases in fluorescent intensities values relative to controls) where artificial concentration-dependent decreases in the rate occurred at high compound concentrations due to fluorescent interferences.
# Keywords: Caspase 7, proteases, profluorescent, MLSMR, MLSCN, NIH Roadmap, qHTS, NCGC
# Potency means the concentration at half of the fitted maximal effect; tags describe the fitted curve by direction and shape or compound fluorescence and quenching.
Compound,Potency,"activity change, negative = inhibition"
CCOc1cc(-c2cc(-c3ccc(N)cc3)nc(N)c2C#N)ccc1O,"inconclusive: 31.6 µM [inhibitor, single point]",–
Cn1c(=O)oc2cc(S(=O)(=O)Nc3ccc4c(c3)OCO4)ccc21,inactive,–
CCOC(=O)c1c(NC(=O)c2cccs2)sc2c1CCC2,"inconclusive: 5.01 µM [fluorescent, side channel, partial curve]",–
CN(C)c1ncc2nc(CCc3ccccc3)c(=O)n(C3CC3)c2n1,"inconclusive: 25.1 µM [inhibitor, partial curve]",–
Cn1c(=O)c(-c2cccs2)nc2cnc(Oc3ccccc3)nc21,"inconclusive: 12.6 µM [fluorescent, side channel, partial curve]",–
Cc1cccc(OCc2nnc(SCC(=O)N(C(C)C)C(C)C)n2Cc2ccco2)c1C,inactive,–
Cc1cc(=O)oc2cc(OCC(=O)OCC(=O)N3CCc4ccccc43)ccc12,–,inconclusive: -54.5% [inhibitor] [at 0.00368 µM]
CCCN1C2=C(C(=O)CCC2)C(c2ccc(O)c(Br)c2)C2=C1CCCC2=O,"inconclusive: 20 µM [fluorescent, side channel, partial curve]",–
Cc1ccc(-c2nnc(SCc3ccccc3F)o2)cc1,inactive,–
CCN(CCCCN1C(=O)c2ccccc2C1=O)c1ccc2c(c1)C(=O)N(C)C2=O,"inconclusive: 12.6 µM [inhibitor, partial curve]",–
COc1ccc(-c2nc3cnc(N4CCOCC4)nc3n(C[C@H]3CCCO3)c2=O)cc1,"inconclusive: 1.26 µM [fluorescent, side channel, full curve]",–
O=c1c2cc(N3CCOCC3)ccc2[nH]c(=S)n1CCN1CCCC1,"inconclusive: 20 µM [fluorescent, side channel, partial curve]",–
COCCn1c(=O)c(-c2cccs2)nc2cnc(N3CCN(C)CC3)nc21,"inconclusive: 3.16 µM [fluorescent, side channel, partial curve]",–
Cc1c(N=Cc2c(O)n(Cc3ccco3)c(=O)c3ccccc23)c(=O)n(-c2ccccc2)n1C,"inconclusive: 25.1 µM [fluorescent, partial curve]",–
COc1ccc(-c2oc3ccccc3c(=O)c2O)cc1OC,"inconclusive: 15.8 µM [fluorescent, partial curve]",–
N#CCCn1c(=O)c(-c2ccccc2)nc2cnc(N3CCOCC3)nc21,"inconclusive: 3.16 µM [fluorescent, full curve]",–
Nc1c2ccccc2nc2ccccc12 (tested in a mixture with another compound),"inconclusive: 12.6 µM [fluorescent, side channel, partial curve]",–
CCNc1ncc2nc(-c3cccc(C#N)c3)c(=O)n(CCC#N)c2n1,"inconclusive: 1.58 µM [fluorescent, side channel, full curve]",–
CC(=O)Nc1nc2n(n1)C(c1ccc(F)cc1)C=C(c1ccccc1)N2 (stereo not given),"inconclusive: 15.8 µM [fluorescent, side channel, partial curve]",–
CC1(C)CC(=O)c2cc(OCC(=O)O)ccc2O1,"inconclusive: 31.6 µM [fluorescent, side channel, single point]",–

Compound,Potency,"activity change, negative = inhibition"
CC(=O)Oc1ccc2cc(-c3nc4ccccc4n3C)c(=O)oc2c1,"inconclusive: 0.794 µM [fluorescent, side channel, full curve]",–
COc1cc2cc3c4c(cc(OC)c(OC)c4c2cc1OC)CCN3C,"inconclusive: 31.6 µM [fluorescent, side channel, partial curve]",–
Cc1cc2n(c1)CCn1c(C)ccc1-2,"inconclusive: 15.8 µM [fluorescent, partial curve]",–
c1ccc2c(c1)CCN(c1nc3ccccc3n3cnnc13)C2,active: 20 µM,–
O=c1c(-c2ccc(F)cc2)nc2cnc(N3CCOCC3)nc2n1Cc1cccs1,"inconclusive: 2.51 µM [fluorescent, side channel, partial curve]",–
O=S(=O)(c1ccc2nc(-c3ccco3)c(-c3ccco3)nc2c1)N1CCOCC1,"inconclusive: 25.1 µM [fluorescent, side channel, single point]",–
c1ccc(-c2cnc(CSc3ncnc4sccc34)o2)cc1,inactive,–
O=C(COC(=O)c1ccc(S(=O)(=O)N2CCOCC2)cc1)Nc1nc(-c2ccccc2)cs1,–,inconclusive: -57.2% [inhibitor] [at 0.00368 µM]
COc1ccc(-c2nc3cnc(Oc4cccc(Cl)c4)nc3n(CCC#N)c2=O)cc1,"inconclusive: 12.6 µM [fluorescent, side channel, partial curve]",–
COc1ccc(CNc2nc(-c3cccnc3)nn2C(=O)c2ccco2)cc1,inactive,–
O=C(c1cccc(F)c1)N1CCC[C@@]2(CCN(C(c3ccccc3)c3ccccc3)C2)C1,inactive,–
COc1cc(NC(=O)c2cccs2)c(OC)cc1NC(=O)c1ccco1,"inconclusive: 39.8 µM [fluorescent, side channel, single point]",–
O=C(Cn1cnc2ccccc2c1=O)NCCC(=O)Nc1ccc2c(c1)OCCO2,inactive,–
COc1ccc(-c2cc(C(N)=O)nc(N3CCCCCC3)n2)cc1,inactive,–
N#Cc1c(N)sc(=S)c2c1CCN(Cc1ccccc1)C2,active: 12.6 µM,–
O=C(c1noc2c1CCc1ccccc1-2)N1CCOCC1,inactive,–
COc1ccc(-c2nc3cnc(N4CCNCC4)nc3n(-c3ccccc3)c2=O)cc1,"inconclusive: 10 µM [fluorescent, side channel, partial curve]",–
COc1cccc(Cn2c(=O)c(-c3ccccc3)nc3cnc(N(C)C)nc32)c1,"inconclusive: 0.794 µM [fluorescent, side channel, full curve]",–
CS(=O)(=O)c1sc2nc(-c3cccs3)cc(-c3ccccc3)c2c1N,"inconclusive: 15.8 µM [fluorescent, partial curve]",–
COc1cccc(C2C3CN(C)CC=C3C(C#N)=C(N)C2(C#N)C#N)c1OC (stereo not given),"inconclusive: 20 µM [fluorescent, partial curve]",–
